These results are taken from publication PMC9911399, “Two distinct binding modes provide the RNA-binding protein RbFox with extraordinary sequence specificity”.

Numbering of substitutions follows the chain as printed; changes in the protein carry UniProt numbers. This is one part of the list.

B1: GCAACCC (DNA:RNA)
RNA: GGGAGACCGGAAUUCAGAUUGUCCGCAACCCUUAAAUCCCGUCGUAGCCACCA
DNA 1: CAATCTGAATTCCGGTCTCCC
DNA 2: TGGTGGCTACGACGGGATT
B2: AACUAUC (DNA:RNA)
RNA: B1 RNA with G25A, C26A, A27C, A28U, C29A, C30U
DNA 1: CAATCTGAATTCCGGTCTCCC
DNA 2: TGGTGGCTACGACGGGATT
B3: AAAGUGC (DNA:RNA)
RNA: B1 RNA with G25A, C26A, A28G, C29U, C30G
DNA 1: CAATCTGAATTCCGGTCTCCC
DNA 2: TGGTGGCTACGACGGGATT
B4: GGAAAAA (DNA:RNA)
RNA: B1 RNA with C26G, C29A, C30A, C31A
DNA 1: CAATCTGAATTCCGGTCTCCC
DNA 2: TGGTGGCTACGACGGGATT
B5: GUCCCAG (DNA:RNA)
RNA: B1 RNA with C26U, A27C, A28C, C30A, C31G
DNA 1: CAATCTGAATTCCGGTCTCCC
DNA 2: TGGTGGCTACGACGGGATT
B6: GGGUUGA (DNA:RNA)
RNA: B1 RNA with C26G, A27G, A28U, C29U, C30G, C31A
DNA 1: CAATCTGAATTCCGGTCTCCC
DNA 2: TGGTGGCTACGACGGGATT
B7: UAGUUAC (DNA:RNA)
RNA: B1 RNA with G25U, C26A, A27G, A28U, C29U, C30A
DNA 1: CAATCTGAATTCCGGTCTCCC
DNA 2: TGGTGGCTACGACGGGATT
B8: UCUUUUA (DNA:RNA)
RNA: B1 RNA with G25U, A27U, A28U, C29U, C30U, C31A
DNA 1: CAATCTGAATTCCGGTCTCCC
DNA 2: TGGTGGCTACGACGGGATT
B9: UACAUCC (DNA:RNA)
RNA: B1 RNA with G25U, C26A, A27C, C29U
DNA 1: CAATCTGAATTCCGGTCTCCC
DNA 2: TGGTGGCTACGACGGGATT
B10: UGCGUAA (DNA:RNA)
RNA: GGGAGACCGGAAUUCAGAUUGUCCUGCGUAAUUAAAUCCCGUCGUAGCCACCA
DNA 1: CAATCTGAATTCCGGTCTCCC
DNA 2: TGGTGGCTACGACGGGATT
B11: ACCCAUU (DNA:RNA)
RNA: B1 RNA with G25A, A27C, A28C, C29A, C30U, C31U
DNA 1: CAATCTGAATTCCGGTCTCCC
DNA 2: TGGTGGCTACGACGGGATT
B12: UUCAAUG (DNA:RNA)
RNA: B10 RNA with G26U, G28A, U29A, A30U, A31G
DNA 1: CAATCTGAATTCCGGTCTCCC
DNA 2: TGGTGGCTACGACGGGATT
B13: GACUUAA (DNA:RNA)
RNA: B10 RNA with U25G, G26A, G28U
DNA 1: CAATCTGAATTCCGGTCTCCC
DNA 2: TGGTGGCTACGACGGGATT
B14: AUAGUCC (DNA:RNA)
RNA: B1 RNA with G25A, C26U, A28G, C29U
DNA 1: CAATCTGAATTCCGGTCTCCC
DNA 2: TGGTGGCTACGACGGGATT
B15: UCUUAGA (DNA:RNA)
RNA: B10 RNA with G26C, C27U, G28U, U29A, A30G
DNA 1: CAATCTGAATTCCGGTCTCCC
DNA 2: TGGTGGCTACGACGGGATT
B16: GCUUUGA (DNA:RNA)
RNA: B1 RNA with A27U, A28U, C29U, C30G, C31A
DNA 1: CAATCTGAATTCCGGTCTCCC
DNA 2: TGGTGGCTACGACGGGATT
B17: UGCUCUA (DNA:RNA)
RNA: B10 RNA with G28U, U29C, A30U
DNA 1: CAATCTGAATTCCGGTCTCCC
DNA 2: TGGTGGCTACGACGGGATT
B18: CACUUAC (DNA:RNA)
RNA: B10 RNA with U25C, G26A, G28U, A31C
DNA 1: CAATCTGAATTCCGGTCTCCC
DNA 2: TGGTGGCTACGACGGGATT
B19: UUUUUCG (DNA:RNA)
RNA: B10 RNA with G26U, C27U, G28U, A30C, A31G
DNA 1: CAATCTGAATTCCGGTCTCCC
DNA 2: TGGTGGCTACGACGGGATT
B20: UAGUAAG (DNA:RNA)
RNA: B10 RNA with G26A, C27G, G28U, U29A, A31G
DNA 1: CAATCTGAATTCCGGTCTCCC
DNA 2: TGGTGGCTACGACGGGATT
B21: GUCUGUG (DNA:RNA)
RNA: B1 RNA with C26U, A27C, A28U, C29G, C30U, C31G
DNA 1: CAATCTGAATTCCGGTCTCCC
DNA 2: TGGTGGCTACGACGGGATT
B22: AUUGAAC (DNA:RNA)
RNA: B10 RNA with U25A, G26U, C27U, U29A, A31C
DNA 1: CAATCTGAATTCCGGTCTCCC
DNA 2: TGGTGGCTACGACGGGATT
B23: CCCAGCC (DNA:RNA)
RNA: B1 RNA with G25C, A27C, C29G
DNA 1: CAATCTGAATTCCGGTCTCCC
DNA 2: TGGTGGCTACGACGGGATT
B24: GAAGCCG (DNA:RNA)
RNA: B1 RNA with C26A, A28G, C31G
DNA 1: CAATCTGAATTCCGGTCTCCC
DNA 2: TGGTGGCTACGACGGGATT
B25: GUAGCAA (DNA:RNA)
RNA: B1 RNA with C26U, A28G, C30A, C31A
DNA 1: CAATCTGAATTCCGGTCTCCC
DNA 2: TGGTGGCTACGACGGGATT
B26: GGGGAGC (DNA:RNA)
RNA: B1 RNA with C26G, A27G, A28G, C29A, C30G
DNA 1: CAATCTGAATTCCGGTCTCCC
DNA 2: TGGTGGCTACGACGGGATT
B27: CUGUUGG (DNA:RNA)
RNA: B10 RNA with U25C, G26U, C27G, G28U, A30G, A31G
DNA 1: CAATCTGAATTCCGGTCTCCC
DNA 2: TGGTGGCTACGACGGGATT
B28: CCACGCA (DNA:RNA)
RNA: B1 RNA with G25C, A28C, C29G, C31A
DNA 1: CAATCTGAATTCCGGTCTCCC
DNA 2: TGGTGGCTACGACGGGATT
B29: GGGUGAG (DNA:RNA)
RNA: B10 RNA with U25G, C27G, G28U, U29G, A31G
DNA 1: CAATCTGAATTCCGGTCTCCC
DNA 2: TGGTGGCTACGACGGGATT
B30: UAGUUCU (DNA:RNA)
RNA: B10 RNA with G26A, C27G, G28U, A30C, A31U
DNA 1: CAATCTGAATTCCGGTCTCCC
DNA 2: TGGTGGCTACGACGGGATT
B31: GGACCGU (DNA:RNA)
RNA: B1 RNA with C26G, A28C, C30G, C31U
DNA 1: CAATCTGAATTCCGGTCTCCC
DNA 2: TGGTGGCTACGACGGGATT

The target in the experiment is T1, RBFOX1 RRM (Homo sapiens, UniProt Q9NWB1 109-208).
T1 sequence: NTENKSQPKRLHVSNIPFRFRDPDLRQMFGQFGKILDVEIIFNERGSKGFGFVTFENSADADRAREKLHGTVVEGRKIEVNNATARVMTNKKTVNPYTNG
Kind of experiment: EMSA; HiTS-Eq, 1 nM pool, 10 min; buffer printed only for the single-RNA assays: 10 mM Tris pH 7.5, 150 mM NaCl, 3.4 mM EDTA, 0.001% NP-40, 30 C. The settings on record: tags: His6 N-terminal (pET28a); label: 5' 32P. An outline of the steps: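 Purified RbFox RRM, wild type or mutant, was incubated for 10 min in 50 µL with 1 nM of a 5′-radiolabelled RNA pool carrying 7 randomized nucleotides, whose flanks were annealed to DNA oligonucleotides, over a series of increasing protein concentrations. Unbound RNA was resolved on 8% native PAGE, cut out, reverse-transcribed, barcoded by PCR and sequenced on an Illumina HiSeq 2500. Relative association constants were derived from changes in read counts for each RNA species versus the control reaction and normalised to the cognate motif.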
Turning to B1, the binding signal was 0.0088 KA relative to UGCAUGU. The figure for B2 is 0.0015 KA relative to UGCAUGU; for B3 it is 0.0115 KA relative to UGCAUGU; for B4 it is 0.00573 KA relative to UGCAUGU. The figure for B5 is 0.00797 KA relative to UGCAUGU; for B6 it is 0.0303 KA relative to UGCAUGU; for B7 it is 0.0171 KA relative to UGCAUGU. The figure for B8 is 0.00867 KA relative to UGCAUGU. As for B9, the binding signal was 0.00419 KA relative to UGCAUGU. The figure for B10 is 0.0144 KA relative to UGCAUGU. B11: the binding signal is 0.000377 KA relative to UGCAUGU. The figure for B12 is 0.00657 KA relative to UGCAUGU; for B13 it is 0.00784 KA relative to UGCAUGU. The figure for B14 is 0.00488 KA relative to UGCAUGU; for B15 it is 0.0135 KA relative to UGCAUGU. The figure for B16 is 0.0231 KA relative to UGCAUGU. In the case of B17, the binding signal was 0.0106 KA relative to UGCAUGU. In the case of B18, the binding signal was 0.0015 KA relative to UGCAUGU. The figure for B19 is 0.0257 KA relative to UGCAUGU.

On to B20, for which the binding signal is 0.0109 KA relative to UGCAUGU. The figure for B21 is 0.0266 KA relative to UGCAUGU; for B22 it is 0.00428 KA relative to UGCAUGU. For the molecule B23, the binding signal is 0.000847 KA relative to UGCAUGU. The figure for B24 is 0.00741 KA relative to UGCAUGU; for B25 it is 0.0103 KA relative to UGCAUGU; for B26 it is 0.0326 KA relative to UGCAUGU. The figure for B27 is 0.0206 KA relative to UGCAUGU; for B28 it is 0.00795 KA relative to UGCAUGU. The figure for B29 is 0.0109 KA relative to UGCAUGU; for B30 it is 0.0102 KA relative to UGCAUGU.

Consider B31, for which the binding signal is 0.0132 KA relative to UGCAUGU.
